Measured values: the supplement of paper PMC4967469
Lines with a small IC50 respond at low doses; fits outside the tested doses are given as limits. AUC, from the same fit, is the share of area under the viability curve across the 256-fold dose range; the more sensitive the line, the further below 1. For part of these data: A top dose marked as inferred is not printed in the source and was worked back from the curve model.

Legend:
Test in all cases: Viability of human cancer cell lines after 72 h of drug (GDSC screen)
[1] = compound: CCN1CCN(Cc2ccc(NC(=O)c3ccc(C)c(/C=C/c4cnc5[nH]ccc5c4OC)c3)cc2C(F)(F)F)CC1 [HG-6-64-1]; conditions: top dose 5.12 µM; top dose inferred
Description: (§1)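 Human cancer cell lines in 384-well plates, medium with 10% serum, drug for 72 h over a 256-fold dose range (nine 2-fold or five 4-fold steps up to the top dose). Adherent lines were fixed and stained with the nucleic acid dye Syto60, suspension lines read with resazurin; signal relative to control wells, capped at 0 and 100%. One two-parameter sigmoid per drug and line, fitted in a mixed model over all curves with the slope shared within a line.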

[2] = compound: COc1cc2nccc(Oc3ccc(NC(=O)Nc4cc(C)on4)c(Cl)c3)c2cc1OC [AV-951]; conditions: top dose 0.128 µM; top dose inferred
Description: as §1

[3] = compound: CCc1cncnc1N1CCN(Cc2nc3ccc(C(F)(F)F)cc3[nH]2)CC1 [PF-4708671]; conditions: top dose 10 µM; top dose inferred
Description: as §1

[4] = compound: CC(=O)Nc1cccc(-n2c(=O)n(C3CC3)c(=O)c3c(Nc4ccc(I)cc4F)n(C)c(=O)c(C)c32)c1 [Trametinib]; conditions: top dose 1 µM
Description: as §1

[5] = compound: O=C(NC(COc1ccc2[nH]c(=O)[nH]c2c1)c1ccccc1)c1cccn(Cc2ccc(F)c(F)c2)c1=O [KIN001-244]; conditions: top dose 20 µM; top dose inferred
Description: as §1

[6] = compound: CCNC(=O)C[C@@H]1N=C(c2ccc(Cl)cc2)c2cc(OC)ccc2-n2c(C)nnc21 [I-BET-762]; conditions: top dose 20 µM; top dose inferred
Description: as §1

| Cell Line | AUC [1] | IC50 [1] [nM] | AUC [2] | IC50 [2] [nM] | AUC [3] | IC50 [3] [µM] | AUC [4] | IC50 [4] [nM] | AUC [5] | IC50 [5] [µM] | AUC [6] | IC50 [6] [µM] |
| --- | --- | --- | --- | --- | --- | --- | --- | --- | --- | --- | --- | --- |
| SK-MEL-28 (melanoma, adherent) | 0.958 | > 5120 | 0.987 | > 128 | 0.983 | > 10 | 0.112 | < 3.91 | 0.853 | 15.1 | 0.988 | > 20 |
| SK-MEL-30 (melanoma, adherent) | 0.777 | 2170 | 0.981 | > 128 | 0.982 | > 10 | 0.098 | < 3.91 | 0.889 | > 20 | 0.864 | 19.2 |
| SK-MES-1 (lung squamous cell carcinoma, adherent) | 0.656 | 903 | 0.982 | > 128 | 0.959 | > 10 | 0.428 | 39.1 | 0.914 | > 20 | 0.94 | > 20 |
| SK-N-AS (neuroblastoma, adherent) | 0.983 | > 5120 | 0.982 | > 128 | 0.954 | > 10 | 0.364 | 24.7 | 0.929 | > 20 | 0.724 | 6.06 |
| SK-N-SH (neuroblastoma, adherent) | 0.476 | 275 | 0.987 | > 128 | 0.942 | > 10 | 0.768 | 372 | 0.853 | 15.4 | 0.922 | > 20 |
| SKG-IIIa (cervix, adherent) | 0.897 | > 5120 | 0.983 | > 128 | 0.957 | > 10 | 0.901 | > 1000 | 0.981 | > 20 | 0.983 | > 20 |
| SKN (uterus, adherent) | 0.79 | 2830 | 0.958 | > 128 | 0.944 | > 10 | 0.679 | 222 | 0.811 | 13.5 | 0.826 | 15.7 |
| SKN-3 (head and neck, adherent) | 0.968 | > 5120 | 0.981 | > 128 | 0.978 | > 10 | 0.692 | 240 | 0.893 | > 20 | 0.972 | > 20 |
| SN12C (kidney, adherent) | 0.783 | 2440 | 0.986 | > 128 | 0.974 | > 10 | 0.622 | 142 | 0.977 | > 20 | 0.974 | > 20 |
| SNG-M (endometrium, adherent) | 0.448 | 232 | 0.986 | > 128 | 0.958 | > 10 | 0.419 | 37.8 | 0.849 | 14.5 | 0.969 | > 20 |
| SNU-182 (liver, adherent) | 0.772 | 2060 | 0.985 | > 128 | 0.986 | > 10 | 0.648 | 164 | 0.848 | 15.9 | 0.828 | 13.1 |
